Test results: PubChem BioAssay AID2101 (National Center for Advancing Translational Sciences (NCATS), 2009)
About 300 (0.091%) of roughly 330,000 compounds were called active. Inconclusive means that the source gave no clear call. Such entries were picked first, then a sample of the others. Calls follow the shape of the dose curve; as a rule, active = well fitted inhibition curve with a large enough effect; inconclusive = small, poorly fitted or top-dose-only effect, or effect the other way, or another doubt; inactive = no such curve, though single readings can be large or run the other way. No potency is given beside an inconclusive call; the fits are too rough.
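For activity change, negative = inhibition in this document: 0% = full enzyme activity and -100% = no enzyme basal.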
Potency is read from the fitted curve at half-maximal effect.

Each compound was assayed against Lysosomal acid glucosylceramidase (Homo sapiens) (UniProt P04062) (assay: qHTS Assay for Inhibitors and Activators of N370S glucocerebrosidase as a Potential Chaperone Treatment of Gaucher Disease). Conditions: N370S GC spleen homogenate, 4MU-glucoside fluorescence; activity change, negative = inhibition: at 59.4 µM (top of the series) unless noted.
With `Cc1c(C(=O)NCCSCc2c(F)cccc2Cl)cnn1-c1ccc(F)cc1` the Potency was inconclusive [activator, full curve]. `Cc1nn2c(CN(C(=O)COc3ccccc3)c3ccccc3)nnc2c2ccccc12` was tested, and the Potency was inconclusive [activator, single point]. For `O=C(CSc1nnc(-c2c[nH]c3ccccc23)n1CC1CCCO1)Nc1ccc2c(c1)OCCO2` (centres undefined), the Potency was inconclusive [activator, partial curve]. In the case of `CC1Sc2ccc(S(=O)(=O)CCC(=O)Nc3cc(F)ccc3F)cc2NC1=O` (centres undefined), the Potency is reported as active: 10 µM. With `COc1cccc(-c2nn3c(-c4cccc(C)c4)nnc3s2)c1` the Potency was inconclusive [activator, partial curve]. `COC(=O)c1cc2c(s1)-c1ccc(OC)cc1CC2` was tested, and the Potency was inconclusive [activator, partial curve]. With `CCN(CC(=O)NCc1ccc(F)cc1)C(=O)COc1ccc(C)c(C)c1` the Potency was inconclusive [inhibitor, partial curve, poor fit]. With `CC(C)CN1CCC(=O)N(CCN=[N+]=[N-])CC1` the Potency was inconclusive [inhibitor, partial curve]. With `Fc1ccc(CNC(=S)Nc2ccc(Cl)cc2)cc1` the Potency was inconclusive [activator, partial curve]. `CC(C)(C)NC(=O)CN(C(=O)c1snc(C(=O)NC2CCCCC2)c1N)c1ccccc1F` was tested, and the Potency was inconclusive [activator, single point]. With `COc1ccc(/C=C/c2ccc3cccc(O)c3n2)c(OC)c1OC` the Potency was “inactive”. For `O=C(NCc1ccccc1)C1=C[C@H](c2ccc(Br)cc2)C[C@H](OCc2ccc(CO)cc2)O1`, the Potency was inconclusive [activator, full curve]. `S=c1[nH]nc(C2CCCCC2)n1/N=C/c1cccs1` was tested, and the activity change, negative = inhibition was inconclusive: 34.4% [activator]. `Cc1ccc(NC(=O)c2[nH]cnc2C(=O)NN)cc1` was tested, and the Potency was “inactive”. In the case of `c1ccc2c(c1)Oc1cccc3cccc-2c13`, the Potency is reported as inconclusive [activator, partial curve]. For `O=c1cnc2cnc(Oc3cccc(Cl)c3)nc2n1Cc1ccc(F)cc1`, the Potency was inconclusive [activator, single point]. `Cc1nc2cc(C(F)(F)F)ccc2n1CCNc1nc(-c2ccc(F)cc2)cs1` was tested, and the Potency was inconclusive [activator, single point]. For `COc1cc2c(cc1OC)C1(Nc3c-2c(-c2ccccc2)nn3-c2ccccc2)C(=O)Nc2ccccc21` (centres undefined), the Potency was inconclusive [activator, partial curve, poor fit]. For `Cc1ccc(NC(=O)CSc2n[nH]c(-c3ccncc3)n2)cc1C`, the Potency was inconclusive [activator, single point]. With `CCOCN(C(=O)Cn1cnc2ccccc21)c1c(C)cccc1CC` the Potency was inconclusive [activator, full curve]. With `Oc1ccccc1Nc1nc(NCC2CCCO2)c2ccccc2n1` (centres undefined) the Potency was inconclusive [inhibitor, single point]. For `CCC(C)NC(=S)Nc1ccccc1OC` (centres undefined), the Potency was inconclusive [activator, partial curve]. For `CCOC(=O)C1CCN(C(=O)CN(c2cc(OC)ccc2OC)S(=O)(=O)c2ccccc2)CC1`, the activity change, negative = inhibition was inconclusive: 29.9% [activator]. For `O=c1[nH]c2ccccc2nc1Cc1ccccc1`, the Potency was inconclusive [activator, partial curve]. For `O=C1C2C3C=CC(CC3)C2C(=O)N1/N=C/c1ccccc1O` (centres undefined), the activity change, negative = inhibition was inconclusive: 31.9% [activator]. With `COC(=O)c1c(NC(=O)C2CC2)sc2c1CCCC2` the Potency was inconclusive [activator, single point]. `CCNc1ncc2nc(-c3ccccc3)c(=O)n(C)c2n1` was tested, and the Potency was inconclusive [activator, full curve]. `CC(=O)NC(Cc1cccc(C)c1)C(=O)NC1CCN(c2ncccc2[N+](=O)[O-])CC1` (centres undefined) was tested, and the Potency was “inactive”. In the case of `Cc1cc(=O)oc2c3c(cc(OCC(=O)N[C@H](C(=O)O)c4ccccc4)c12)OC(C)(C)CC3`, the Potency is reported as inconclusive [activator, partial curve]. In the case of `C=C(C)C(=O)c1ccc(F)cc1`, the Potency is reported as “inactive”. In the case of `Cc1cc(OCCn2cc(/C(N)=N/O)c3ccccc32)ccc1Cl`, the Potency is reported as inconclusive [inhibitor, partial curve]. With `COc1ccc(S(=O)(=O)/N=C2\C=C(Nc3ccc(O)cc3)C(=O)c3ccccc32)cc1` the Potency was “inactive”. With `CC(C)CC1Nc2ccc(C(=O)NCCCN3CCCCC3C)cc2NC1=O` (centres undefined) the Potency was “inactive”. For `S=C(NCCc1ccccc1)N1CCc2ccccc2C1`, the Potency was “inactive”. In the case of `C[C@@H]1O[C@H](O[C@@H]2C(O)[C@H](O)[C@@H](CO)O[C@H]2Oc2cc(O)c3c(=O)cc(-c4ccc(O)cc4)oc3c2)[C@H](O)[C@H](O)[C@H]1O` (some centres undefined), the Potency is reported as “inactive”. In the case of `O=C(Nc1ccc(F)cc1F)Nc1ccc(F)cc1F`, the Potency is reported as “inactive”. `O=c1cc(-c2ccccc2)[nH]c2nc3ccccc3n12` was tested, and the Potency was “inactive”. For `Cc1cc(C(F)(F)F)nc(Nc2nc(C)c3ccccc3n2)n1`, the Potency was inconclusive [inhibitor, partial curve, poor fit]. `CCOC(=O)C1=NN(C(=O)c2ccc(C)cc2)C(O)(c2ccc(Cl)cc2)C1` (centres undefined) was tested, and the Potency was inconclusive [activator, single point]. For `COc1ccc(N2C(=O)CCC(C(=O)N3CCC(C(N)=O)CC3)C2c2ccc(F)cc2)cc1` (centres undefined), the Potency was “inactive”. In the case of `O=c1c(-c2nc3ccccc3s2)cccn1Cc1ccc(Cl)c(Cl)c1`, the Potency is reported as inconclusive [activator, partial curve]. With `Oc1ccccc1N=Cc1ccc[nH]1` the Potency was “inactive”. `Cc1cc2cc(CN(Cc3ccco3)C(=S)NCC3CCCO3)c(=O)[nH]c2cc1C` (centres undefined) was tested, and the Potency was inconclusive [activator, single point]. For `Cc1sc(N)nc1C12CC3CC(CC(C3)C1)C2`, the Potency was inconclusive [inhibitor, partial curve, poor fit].
